Reference: paper PMC6451091
This is one part of the list. For part of these data: At the low end of the ranking, values are background and their order means little. For part of these data: The protein was read in a cell extract, so binding may be indirect.

What was measured:
Settings in all cases: 20 mM HEPES pH 7.9, 100 mM NaCl, 1 mM DTT, 0.2 mg/mL BSA, 0.02% Triton X-100, 2% milk, 0.4 mg/mL salmon testes DNA; 1 h; temperature not stated; high values mean tight binding; double strand, one strand shown; sequences stand for … in GCCTAGCAC…GTGCTAGGTCTTGATTCGCTTGACGCTGCTG
PU.1 (IVT) = PU.1 (IVT) (UniProt P17947); experiment: protein-binding microarray (PBM)
[1] = biological target: T1, FLI1 (endogenous, THP-1 nuclear extract) (UniProt Q01543); experiment: nuclear extract protein-binding microarray (nextPBM)
T1 sequence: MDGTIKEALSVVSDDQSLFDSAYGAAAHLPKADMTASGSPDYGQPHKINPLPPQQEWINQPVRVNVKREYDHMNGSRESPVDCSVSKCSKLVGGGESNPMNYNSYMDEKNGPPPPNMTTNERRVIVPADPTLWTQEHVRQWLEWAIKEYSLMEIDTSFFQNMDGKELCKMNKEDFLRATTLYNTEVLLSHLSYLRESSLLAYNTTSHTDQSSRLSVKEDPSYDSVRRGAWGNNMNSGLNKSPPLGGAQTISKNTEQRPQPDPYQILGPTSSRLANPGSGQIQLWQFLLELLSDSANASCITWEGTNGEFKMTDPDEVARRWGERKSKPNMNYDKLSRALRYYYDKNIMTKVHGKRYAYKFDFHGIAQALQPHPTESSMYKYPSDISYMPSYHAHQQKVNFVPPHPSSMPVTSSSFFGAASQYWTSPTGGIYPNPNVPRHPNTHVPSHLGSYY

[2] = system: PU.1 (endogenous, THP-1 nuclear extract) + IRF8 (endogenous, THP-1 nuclear extract); experiment: as above

| Sequence | binding signal (PU.1 (IVT)) | binding signal [1] | binding signal [2] |
| --- | --- | --- | --- |
| GAAATGAGGAAATGAAACCA | 5.18 z-score | 3.26 z-score | 56.8 z-score |
| GAAAAGAGGAACAGAAACTG | 4.98 z-score | 2.44 z-score | 40.3 z-score |
| TTGGCAGGGAACTGAAACTC | 0.435 z-score | 0.129 z-score | 10.4 z-score |
| TGGCAGAGGAAGTGAACCTA | 3.12 z-score | 2.6 z-score | 1.07 z-score |
| TTTTTGAGGAACTGAAACTG | 4.69 z-score | 2.37 z-score | 55.9 z-score |
| TAAAGGAGGAATTGAAACCA | 1.22 z-score | 0.879 z-score | 13.1 z-score |
| ACAAAAAGGAAATGAAAGTA | 1.66 z-score | 2.67 z-score | 12.8 z-score |
| CAGGCAGGGAACTGAAACTC | 1.13 z-score | 0.409 z-score | 8.15 z-score |
| TGAGACAGGAAGTGAAACCA | 2.99 z-score | 5.6 z-score | 54.4 z-score |
| CAGTTGAGGAAGTGAAACTG | 4.67 z-score | 3.48 z-score | 64.5 z-score |
| TGAAACAGGAAGTGAAATCA | 6.78 z-score | 5.68 z-score | 10.5 z-score |
| TGCAGAGGGAAGTGAAACTG | 3.24 z-score | 2.82 z-score | 45.7 z-score |
| CAAAAGAGGAAGAGAAACTC | 5.07 z-score | 2.59 z-score | 9.32 z-score |
| AGAAAACGGAAGTGAAACTC | 6.77 z-score | 5.44 z-score | 69.4 z-score |
| CTGGTAGGGAACTGAAACTC | 1.37 z-score | 0.183 z-score | 13.7 z-score |
| GATAAGAGGAACTGAAAACT | 4.63 z-score | 1.76 z-score | 1.58 z-score |
| CTGGCAGGGAACTGAAACGC | 1.03 z-score | 0.242 z-score | -0.533 z-score |
| TGGCAGAGGAAGTGAAGCTA | 2.39 z-score | 2.44 z-score | 0.192 z-score |
| TGAAACACGAAGTGAAACCA | 0.17 z-score | 0.145 z-score | 32.2 z-score |
| AGAAACAGGAAGTGAAACTG | 7.62 z-score | 6.05 z-score | 77.9 z-score |
| AAAAAAAGGAAAAGAAAGTA | 0.585 z-score | 1.15 z-score | 0.351 z-score |
| AAAAAGAGGAAATGAAAGTA | 6.54 z-score | 4.16 z-score | 39.9 z-score |
| AGAAAGGGGAACTGAAACTC | 6.15 z-score | 3.38 z-score | 47.2 z-score |
| TGAGAGGAGAACTGAAACCT | 0.785 z-score | -0.0605 z-score | 9.34 z-score |
| AAAAAAAGGAAATGAAAGCA | 3.26 z-score | 2.24 z-score | 4.66 z-score |

| Sequence | binding signal (PU.1 (IVT)) | binding signal [1] | binding signal [2] |
| --- | --- | --- | --- |
| CTGCCAGGGAAGTGCAAGCA | 0.9 z-score | 0.69 z-score | 0.447 z-score |
| ACTGAAGGGAAGAGAAACTA | 0.76 z-score | 0.0274 z-score | 3.5 z-score |
| TGAAACAGGAAGTGAAACCG | 7.08 z-score | 5.87 z-score | 65.1 z-score |
| GACATGAGGAAGTGAAACTA | 4.72 z-score | 3.11 z-score | 73.5 z-score |
| TAAAGGAGGAAGTGAAACCA | 5.84 z-score | 4.13 z-score | 70.7 z-score |
| TGGCACAGGAAGTGAAACTA | 2.38 z-score | 5.1 z-score | 61 z-score |
| AAAATAAGGAAATGAAAGTA | 3.43 z-score | 2.23 z-score | 19 z-score |
| CTGCCAGGGAAGTGAAAGCG | 1.19 z-score | 1.22 z-score | 3.54 z-score |
| TAGAAGAGGAACTGAAACTT | 4.3 z-score | 2.98 z-score | 34.2 z-score |
| TGAAACAGGAAGTGAAACTA | 6.92 z-score | 6.05 z-score | 85.5 z-score |
| GATAAGACGAACTGAAAGCT | -0.182 z-score | -0.683 z-score | 0.361 z-score |
| CTGGCAGGGGACTGAAACTC | -0.594 z-score | -0.612 z-score | 5.46 z-score |
| CAGAGGGGGAAGTGAAACCC | 4.03 z-score | 2.76 z-score | 27.9 z-score |
| AAAAAAAGGAAATGAAACTT | 3.41 z-score | 3 z-score | 28.7 z-score |
| TGGCAGAGGAAGTGAAATTA | 3.38 z-score | 2.81 z-score | 1.65 z-score |
| TGAAACAGGAAGTGAACCCA | 6.26 z-score | 6.09 z-score | 3.44 z-score |
| ATTTTGAAGAACTGAAACTG | 0.566 z-score | 0.0712 z-score | 17.2 z-score |
| CCACAGAGGAAATGAAACTT | 1.62 z-score | 2.76 z-score | 17.9 z-score |
| GATAAGAGGAACTGAAAGAT | 4.13 z-score | 1.52 z-score | 2.42 z-score |
| TCGAGTGGGAAGTGAAAGTG | 2.65 z-score | 1.81 z-score | 15.3 z-score |
| CTGGAAGGGAACTGAAACTC | 1.45 z-score | 0.797 z-score | 14.1 z-score |
| CTCGCAGGGAACTGAAACTC | 0.811 z-score | -0.165 z-score | 12.1 z-score |
| GAAAAGAGGAACAGAAACTA | 4.92 z-score | 3.06 z-score | 41.7 z-score |
| GGTGACAGGAAGTGAAACTG | 3.24 z-score | 5.25 z-score | 47.4 z-score |
| ATTTTCAGGAAGTGAAACTA | 5.62 z-score | 4.43 z-score | 76 z-score |
